Experimental data published in PMC4336329 (PLoS ONE, 2015).
About 2,200 (0.71%) of roughly 310,000 compounds showed an effect of 50% or more. The effect is printed as a negative number. This is one part of the list.

target: human ether-à-go-go-related gene (hERG) potassium channel (human, UniProt Q12809); assay: primary screen, population patch clamp on CHO cells stably expressing hERG
Sequence (Q12809 whole entry, looked up): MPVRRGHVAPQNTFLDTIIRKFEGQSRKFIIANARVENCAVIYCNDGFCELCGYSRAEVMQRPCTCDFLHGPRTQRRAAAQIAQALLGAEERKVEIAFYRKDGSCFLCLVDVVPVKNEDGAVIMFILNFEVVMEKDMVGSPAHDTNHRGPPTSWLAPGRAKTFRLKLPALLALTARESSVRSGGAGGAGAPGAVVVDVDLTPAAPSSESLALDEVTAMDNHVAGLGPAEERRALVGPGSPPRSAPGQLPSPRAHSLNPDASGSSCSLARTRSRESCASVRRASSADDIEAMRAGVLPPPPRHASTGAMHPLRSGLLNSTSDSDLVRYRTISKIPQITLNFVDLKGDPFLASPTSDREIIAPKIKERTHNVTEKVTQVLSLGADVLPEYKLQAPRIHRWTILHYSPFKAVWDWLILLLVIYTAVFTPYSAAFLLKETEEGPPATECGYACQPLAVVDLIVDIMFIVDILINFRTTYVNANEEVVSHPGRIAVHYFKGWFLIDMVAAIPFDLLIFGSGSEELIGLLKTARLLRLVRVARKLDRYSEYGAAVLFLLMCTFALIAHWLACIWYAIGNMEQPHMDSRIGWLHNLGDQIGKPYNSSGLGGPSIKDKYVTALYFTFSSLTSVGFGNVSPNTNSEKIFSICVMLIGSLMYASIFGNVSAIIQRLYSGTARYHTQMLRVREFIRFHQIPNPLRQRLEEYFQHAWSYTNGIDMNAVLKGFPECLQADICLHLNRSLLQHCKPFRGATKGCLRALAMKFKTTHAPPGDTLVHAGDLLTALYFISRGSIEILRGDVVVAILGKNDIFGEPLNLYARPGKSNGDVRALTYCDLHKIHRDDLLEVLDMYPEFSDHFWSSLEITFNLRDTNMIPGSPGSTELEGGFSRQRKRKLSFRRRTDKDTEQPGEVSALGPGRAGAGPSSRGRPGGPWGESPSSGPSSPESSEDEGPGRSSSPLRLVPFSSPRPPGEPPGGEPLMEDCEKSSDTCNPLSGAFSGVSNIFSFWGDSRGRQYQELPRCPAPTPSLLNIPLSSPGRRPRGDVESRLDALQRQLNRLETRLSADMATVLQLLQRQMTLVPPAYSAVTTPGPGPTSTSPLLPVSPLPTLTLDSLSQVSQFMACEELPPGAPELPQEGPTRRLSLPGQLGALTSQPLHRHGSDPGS

Row | Structure (SMILES) | hERG current change (%, negative = inhibition) at 1uM
1 | Cc1ccc(C(=O)Nn2c(C)nc3ccccc3c2=O)cc1C | 19%
2 | Cc1ccc(S(=O)(=O)N2CCCC(C(=O)NCC3COCCO3)C2)cc1 (stereo not drawn) | -1.6%
3 | COCC1CCCN(Cc2cn(-c3ccccc3F)nc2-c2cc(C)sc2C)C1 (stereo not drawn) | 11.8%
4 | CC(NC(=O)c1ccccc1F)c1nnc(SCC(=O)Nc2nnc(C3CC3)s2)n1C (stereo not drawn) | 6.39%
5 | CC(Sc1nnc(C2CC2)n1C1CC1)C(=O)N(C)C1(C#N)CCCCC1 (stereo not drawn) | -1.07%
6 | Cc1ccccc1N1C(=S)NC2c3ccccc3OC1(C)C2C(=O)N(C)C (stereo not drawn) | -11.5%
7 | C/C(=N\NC(=O)C(C)n1nc(C)c([N+](=O)[O-])c1C)c1ccccc1O (stereo not drawn) | 12.1%
8 | Cc1cc(O)c2c(CN3CCN(Cc4ccccc4)CC3)cc(=O)oc2c1 | 5.08%
9 | O=C1[C@H]2C(c3ccccc3)=NN(c3ccccc3)[C@H]2C(=O)N1c1ccccc1 | 13%
10 | CCCCn1c(NC(C)=O)c(C#N)c2nc3ccccc3nc21 | 14.9%
11 | COc1ccc(-n2c(COc3ccc(Cl)cc3)nnc2SCc2ccc(C#N)cc2)cc1 | 11.9%
12 | CC(C)CC1Nc2ncnc(N3CCN(c4ccccc4)CC3)c2N(Cc2ccc(Br)cc2)C1=O.O=C(O)C(F)(F)F (stereo not drawn) | 4.64%
13 | Cn1c(C(=O)NCCN2CCOCC2)cc2c(=O)n(C)c3ccccc3c21 | 3.05%
14 | COc1ccc(Cn2ccnc2SCC(=O)Nc2nnc(C)s2)cc1 | 9.92%
15 | O=C1CC(c2ccc(F)cc2)CC2=C1C=Nc1ccccc1N2 (stereo not drawn) | -21.5%
16 | CSc1nc(N)nc(SCC(=O)CC(=O)OC(C)C)c1C#N | 5.48%
17 | O=C(CCOc1ccccc1)N1CCN(c2ccc(O)cc2)CC1 | -1.99%
18 | O=C(COC(=O)c1cc(=O)c2ccccc2o1)NC1CCCC1 | 15.6%
19 | COC(=O)c1cc(CN2CCN(c3ccccc3)CC2)ccc1O.Cl | 9.4%
20 | CCCC(=O)Nc1c2c(nn1-c1ccc(C)cc1C)CSC2 | -4.3%
21 | COCCNc1oc(-c2ccc(F)cc2)nc1C#N | 9.01%
22 | CCC(=O)N1CCc2cc(Br)cc(S(=O)(=O)CCC(=O)NCCc3ccccc3)c21 | 8.05%
23 | Cc1nn(-c2ccccc2)c(Cl)c1/C=N/NC(=O)CNC(=O)c1ccccc1Cl | 3.32%
24 | COc1cc(C2=NOC(C(=O)Nc3ccc(C)cc3)C2)cc(OC)c1OC (stereo not drawn) | 7.87%
25 | O=c1c2ccccc2nc2n1CCN2 | 16.1%
26 | O=C(CCN1CCN(C(=O)c2ccco2)CC1)Nc1ccc(F)cc1 | 4.91%
27 | O=C(CN1CCCC1)Nc1sc2c(c1C(=O)Nc1ccc(Br)cc1)CCC2 | -0.806%

Row | Structure (SMILES) | hERG current change (%, negative = inhibition) at 1uM
28 | O=C(CC1CCCCC1)Nc1c2c(nn1-c1ccc(F)cc1)CS(=O)(=O)C2 | 0.272%
29 | Cc1ccc(C)c(NC(=O)Cn2c(=O)n(-c3ccc(CC(=O)NCC4CCCO4)cc3)c(=O)c3ccccc32)c1 (stereo not drawn) | 13.1%
30 | CCOCCn1c(CN2CCN(c3ccc(OC)cc3)CC2)nc2c1c(=O)n(C)c(=O)n2C | -11.1%
31 | Cc1ccc(NC(=O)c2cn(-c3cccc(C)n3)cn2)cc1 | 1.38%
32 | CCCCn1c(N)c(Sc2ccccc2[N+](=O)[O-])c(=O)[nH]c1=O | 23.3%
33 | O=C(CSc1nnnn1-c1ccccc1)N1CCCc2ccccc21 | 9.7%
34 | O=C(NNS(=O)(=O)Cc1ccccc1)c1ccc([N+](=O)[O-])cc1 | 3.38%
35 | COc1ccc(N2CCN(C(=O)c3ccc(N4C(=O)NC5CC4(C)Oc4ccccc45)cc3)CC2)cc1 (stereo not drawn) | 9.87%
36 | CCC(NC(=O)Cc1c(C)c2cc3c(cc2oc1=O)OC(C)(C)CC3)C(=O)O (stereo not drawn) | 13.7%
37 | CCCCN(C(=O)Cc1cccc(F)c1)c1c(N)n(CCC)c(=O)[nH]c1=O | 6.3%
38 | COc1ccc(N2C(=O)NC(=O)/C(=C/c3ccc(N4CCOCC4)cc3)C2=O)cc1 | 6.36%
39 | O=Cc1c(N2CCCCCC2)nc2ccccn2c1=O | 6.87%
40 | CCc1ccc(C2C(C#N)=C(N)SC(N)=C2C#N)cc1 | 12.3%
41 | CCN1CCN(S(=O)(=O)c2ccc(C(=O)Nc3sc4c(c3C(N)=O)CCN(CC)C4)cc2)CC1 | 6.86%
42 | O=C(CN1CCN(c2ccccn2)CC1)N(c1ccccc1)c1ccc2ccccc2c1 | 6.26%
43 | Cc1ccc(S(=O)(=O)NNC(=O)c2sc(NS(=O)(=O)c3ccccc3)nc2C)cc1 | 4.35%
44 | O=c1cc(-c2ccc(F)cc2)oc2ccccc12 | 3.52%
45 | COCCNC(=O)CN(c1cc(C(F)(F)F)ccc1Cl)S(C)(=O)=O | 10.9%
46 | O=[N+]([O-])c1ccc(-[n+]2c(-c3ccccc3)cc(-c3ccccc3)cc2-c2ccccc2)cc1.[O-][Cl+3]([O-])([O-])[O-] | 14.7%
47 | O=c1cc(O)n(-c2ccc(Cl)cc2)c(=S)[nH]1 | 5.55%
48 | CCOc1ccc(S(=O)(=O)NCc2ccccn2)c(C)c1C | 12.1%
49 | O=[N+]([O-])c1cccc(S(=O)(=O)N/N=C/c2ccc(O)cc2)c1 | 7.51%
50 | Cn1ccnc1Sc1ccc(C(N)=O)cc1[N+](=O)[O-] | 13.1%
51 | COCCCNS(=O)(=O)c1cc2c3c(c1)C(C)C(=O)N3CCC2 (stereo not drawn) | 21.7%
52 | CN(C)CCN(C(=O)c1ccc(S(=O)(=O)N(C)c2ccccc2)cc1)c1nc2cc3c(cc2s1)OCCO3.Cl | 11.4%
53 | O=C(COc1coc(CN2CCCc3ccccc32)cc1=O)Nc1ccccc1 | -6.51%
54 | Cc1ccc(C(=O)Nn2cnc3ccccc3c2=O)cc1C | 4.05%
